In all, about 52,000 compounds went through this assay and about 4,300 (8.3%) were called active. Cut-off read from the data, not from the text of the source: active = survival mostly below about 52% (no sharp cut-off); inactive = mostly above about 56%. The list shows a part of the results.

This experiment relates to DeltatarO mutant. Briefly: growth inhibition of S. aureus wild type versus tarO mutant, primary screen, teichoic acid synthesis inhibitors, RN4220, OD600 (AID 463173). The settings on record: OD600, 18 h, hits give low values, screened at 18.75 µg/mL (by protocol).
As to `COCCNC(=O)c1ccc(Cn2c(SCC(N)=O)nc3ccccc3c2=O)cc1`, the survival is inactive: 115%.

Take `COc1ccc2[nH]c(=O)c(CN(Cc3ccc4c(c3)OCO4)Cc3nnnn3CCc3ccccc3)cc2c1`: the survival was inactive: 103%.

As for `Cn1c(SCc2ccc(F)cc2)nc2ccc(C(=O)NCc3cccc(Cl)c3)cc21`, the survival is active: 56%.

With `COc1cccc(OCCSc2nc3ccccc3n2CC(=O)N2CCOCC2)c1`, the survival was active: 44%.

In the case of `COc1ccc2c(CNC3CCC(C)CC3)c(C(=O)O)n(Cc3ccc(F)cc3)c2c1` (stereo unspecified), the survival was inactive: 70%.

Consider `Cc1ccc(N(Cc2cccs2)C(=O)c2ccc(OC(C)C)cc2)cc1`, for which the survival was inactive: 95%.

As for `CCOc1ccccc1C(=O)NCc1ccc2c(c1)CCN2C(=O)c1ccc(F)cc1`, the survival is inactive: 78%.

`Cc1cccc(CNC(=O)C2CCN(c3nn4cc(-c5ccc(F)cc5)nc4s3)CC2)c1`: the survival was active: 47%.

`COc1ccc(-n2ncc(C(=O)NCc3cccs3)c2C2CCN(C(=O)OC(C)(C)C)CC2)cc1`: the survival was inactive: 89%.

Turning to `CCc1ccccc1N(CC)C(=O)c1cc2c(s1)-c1ccccc1SC2`, the survival is active: -1%.

Regarding `O=C(Cc1ccc(Cl)cc1)NC1CC(=O)N(c2ccc3c(c2)OCCO3)C1` (stereo unspecified), the survival is inactive: 85%.

As for `Cc1cc(C)cc(NC(=O)NCc2noc3ccccc23)c1`, the survival is inactive: 52%.

Take `CCOc1ccccc1C(=O)Nc1cccc(-c2nc3ccccc3s2)c1`: the survival was active: 41%.

`CC1=C(C#N)c2nc(N)c(C#N)c(C)c2/C1=C\C=C\c1ccccc1`: the survival was inactive: 112%.

As to `COc1ccccc1/C=C/c1nc(C#N)c(NCc2ccccc2)o1`, the survival is inactive: 83%.

As to `COc1ccc(-c2cn3c(n2)sc2cc(C(=O)NCCc4ccccc4)ccc23)cc1`, the survival is inactive: 86%.

In the case of `O=C(OCc1cc(=O)n2nc(C3CC3)sc2n1)c1cccc(NC(=O)c2ccccc2Cl)c1`, the survival is inactive: 90%.

Consider `Cc1ccc(C)c(NC(=O)c2cnc(N3CCCC3)nc2C)c1`, for which the survival was inactive: 94%.

`CC(Nc1oc(-c2ccc(COc3ccccc3)o2)nc1C#N)c1ccccc1` (stereo unspecified): the survival is inactive: 54%.

For the molecule `Cc1cccc(-n2ncc3c(NCCOCCO)ncnc32)c1`, the survival was inactive: 71%.

As for `O=C(CSc1nc2ccccc2c(=O)n1Cc1ccco1)Nc1ccccc1`, the survival is inactive: 84%.

With `O=C(CSc1nc2c([nH]c3ccccc32)c(=O)n1-c1ccccc1F)Nc1cccc(Cl)c1`, the survival was inactive: 74%.

Turning to `CCC(=O)N1CCc2cc(S(=O)(=O)CCC(=O)Nc3cc(Cl)ccc3OC)ccc21`, the survival was inactive: 80%.

Regarding `COc1cccc(N2CC(NC(=O)/C=C\c3ccccc3)CC2=O)c1` (stereo unspecified), the survival is inactive: 98%.

`CCOc1ccc(-c2cn3c(n2)sc2cc(C(=O)NC(C)C45CC6CC(CC(C6)C4)C5)ccc23)cc1` (stereo unspecified): the survival was inactive: 115%.

Regarding `Cc1cc(C)nc(Oc2ccc(Br)cc2Br)n1`, the survival is inactive: 102%.

With `CCOc1ccc(C(c2c(O)cc(C)n(Cc3ccco3)c2=O)N2CCN(C)CC2)cc1` (stereo unspecified), the survival is inactive: 69%.

For the molecule `CC1CCN(C(=O)Cn2cc(SCC(=O)NCc3ccccc3)c3ccccc32)CC1`, the survival is inactive: 63%.

For `CCc1nnc(NC(=O)c2nc(SCc3cccc(C)c3)ncc2Cl)s1`, the survival was active: 5%.

Regarding `O=S(=O)(c1ccccc1)n1nc(-c2ccco2)nc1NCc1ccccc1`, the survival was inactive: 71%.

Consider `CCC(Sc1nnc(-c2ccc(F)cc2)c(-c2ccc(F)cc2)n1)C(=O)NC1CCCC1` (stereo unspecified), for which the survival is inactive: 75%.

Take `N#C/C(=C\Nc1cccc(C(F)(F)F)c1)C(=O)N1CCOCC1`: the survival was inactive: 98%.

For `Cn1nnc2cc(C(=O)N3CCCCCC3)ccc21`, the survival is inactive: 74%.

For the molecule `CCCOc1ccc(C2C(=O)N(C3CCCCC3)CC(=O)N2C2CCCCC2)cc1OC` (stereo unspecified), the survival is inactive: 91%.

`O=C(COCc1cc(-c2ccc(F)cc2)on1)Nc1cccc(C(F)(F)F)c1`: the survival was inactive: 72%.

For the molecule `COc1ccc(Cn2c(CO)cnc2SCc2ccccc2)cc1`, the survival is inactive: 89%.

In the case of `Cc1ccc(-n2c(=O)c3c(C)c(C(=O)N(C)C)sc3n(Cc3ccccc3C)c2=O)cc1C`, the survival was inactive: 98%.

`Cc1cccc(Nc2nc(-c3ccccc3)nc3ccccc23)c1`: the survival was active: 1%.

For `O=C(c1cc2sccc2n1Cc1ccccc1)N1CCCC1`, the survival was inactive: 78%.

For the molecule `Cc1cccc(Cn2c(CN3CCC(C(=O)NC(C)C)CC3)cc3ccccc32)c1`, the survival was inactive: 74%.

`COc1ccc(CNC(=O)C2CCN(S(=O)(=O)c3cccc(-c4noc(C)n4)c3)CC2)cc1`: the survival is inactive: 92%.

For the molecule `CCOc1ccc(CNC(=O)c2cc3c(=O)oc4ccc(C)cc4c3s2)cc1`, the survival was inactive: 72%.

On to `COc1ccc(C2C(C(=O)Nc3ccccc3)=C(C)Nc3nc(-c4ccc(Cl)cc4)nn32)cc1` (stereo unspecified), for which the survival is inactive: 98%.

On to `Cc1ccccc1CNCCCSc1nnnn1C`, for which the survival was inactive: 76%.

For the molecule `Cc1ccc(NC(=O)CSCc2cc(=O)c3ccccc3[nH]2)c(C)c1`, the survival was inactive: 116%.

On to `CCOC(=O)NNC(=O)C1CCC(C)CC1` (stereo unspecified), for which the survival was inactive: 55%.

Take `CC(C)Oc1ccc(CNC(=O)c2cnc3sc(N4CCCC4)nn3c2=O)cc1`: the survival is inactive: 94%.

With `Cc1oc2c(c1C(=O)NCc1ccccc1F)C1=NCCN1C=N2`, the survival is inactive: 89%.

As to `O=C(NCC(c1ccc2c(c1)OCO2)N1CCN(c2ccccc2)CC1)C(=O)Nc1ccccc1F` (stereo unspecified), the survival is inactive: 82%.

Take `Cc1cccc2c(=O)c(N)c[nH]c12`: the survival was inactive: 105%.

For the molecule `O=S(=O)(NCCCO)c1ccc2c(c1)Cc1cc(S(=O)(=O)NCCCO)ccc1-2`, the survival was inactive: 71%.

Take `COC(=O)c1cc2c(=O)n3ccccc3nc2n(CCN2CCOCC2)c1=N`: the survival was inactive: 87%.

On to `CCOc1ccc(NC(=O)CC2C(=O)N(c3ccc(OC)cc3)C(=O)N2CCC2=CCCCC2)cc1` (stereo unspecified), for which the survival was inactive: 71%.

`CCN(CC)C(=O)Cn1ncc2c([nH]c3ccccc32)c1=O`: the survival was inactive: 118%.

In the case of `COc1cccc(N2CCN(C(=O)c3ccc4nc(N5CCC(C)CC5)sc4c3)CC2)c1`, the survival was inactive: 62%.

As for `CCN1C(=O)C2C(c3ccc(F)cc3)NC(CCSC)(C(=O)OC)C2C1=O` (stereo unspecified), the survival was inactive: 54%.

With `CCOC(=O)c1cnc2ccc(C(=O)OC)cc2c1Nc1ccc(OCc2ccccc2Cl)cc1`, the survival is inactive: 151%.

`CC(=O)Nc1cccc(-c2nnc(SCC(=O)c3cc([N+](=O)[O-])ccc3Cl)o2)c1`: the survival was inactive: 74%.

Turning to `COc1ccccc1-c1nn(CCC(=O)Nc2ccc(C)cc2)c2nc(C)cc(C)c12`, the survival was inactive: 53%.

For `CCN1CCN(CCCNC(=O)Cn2nc(C)n3c(cc4c(OC)cccc43)c2=O)CC1`, the survival is inactive: 103%.

Take `Cc1ccccc1NC(=O)CSc1ccc(-c2ccccn2)nn1`: the survival was inactive: 112%.

In the case of `CC1=C(C(N)=O)C(c2ccc(C)cc2)n2nc(SCc3ccccc3)nc2N1` (stereo unspecified), the survival is inactive: 112%.

Turning to `O=C(NCc1ccccc1Cl)C1=Cc2cc(Br)ccc2OC1`, the survival is inactive: 112%.

On to `Cc1cc(C)cc(NC(=O)C(=O)NCCc2sc(-c3cccc(F)c3)nc2C)c1`, for which the survival is inactive: 80%.

Turning to `O=C(CSc1nc2ccccc2c(=O)n1C1CCCCC1)NCc1ccco1`, the survival was inactive: 100%.

On to `CC(=O)Nc1ccc(NC(=O)c2ccc3c(c2)CCN3S(=O)(=O)c2ccc(C)cc2)cc1`, for which the survival was inactive: 62%.

For `COc1ccc(C)cc1NC(=O)N(C(C)C)C1CCN(C(C)=O)CC1`, the survival is inactive: 75%.

`O=C(O)c1cc(-c2ccccc2)nn1Cc1ccccc1`: the survival is inactive: 73%.

For `COc1ccc(C(C)=O)cc1CSc1nc(Nc2ccc(F)c(F)c2)c2ccccc2n1`, the survival is active: 25%.

As to `Cc1ccc(-c2nnc3ccccc3c2C(=O)Nc2ccc(F)cc2)cc1`, the survival is inactive: 100%.

Turning to `COc1ccccc1Nc1nn2c(=O)c3ccc(C(=O)NCCc4ccccc4)cc3nc2s1`, the survival is inactive: 78%.

Consider `Cc1ccc(-n2c(=O)c3c(cnn3C)n(CC(=O)Nc3cccc(Cl)c3)c2=O)cc1`, for which the survival is active: 55%.

As for `CCC(C(=O)NCCc1ccc(OC)c(OC)c1OC)n1nc(C)c2sc3ccccc3c2c1=O` (stereo unspecified), the survival is inactive: 103%.

For the molecule `CCc1ccccc1NC(=O)CCn1cccn1`, the survival is inactive: 135%.

Consider `Cc1ccc(CSc2nc3ccccc3c3nc(CCn4c(C)nc5ccccc54)nn23)cc1`, for which the survival was inactive: 90%.

`O=C(Nc1cccc2ccccc12)OCCn1nnnc1CN1CCOCC1`: the survival is inactive: 97%.

`Cc1cc(C)cc(NC(=O)C(C)N2Cc3ccccc3C2=O)c1` (stereo unspecified): the survival is inactive: 91%.

Take `Cc1ccc(C)c(N2CCN(CCCNC(=O)c3cnn(-c4cccc(Cl)c4)c3C3CCN(C(=O)OC(C)(C)C)CC3)CC2)c1`: the survival is active: 52%.

Turning to `CCOc1ccc(NC(=O)c2ccc3c(=O)n4c(nc3c2)CCCCC4)cc1`, the survival was inactive: 139%.

As for `O=C(CSc1n[nH]c(-c2ccccc2)n1)N1CCN(c2ccc(F)cc2)CC1`, the survival is inactive: 65%.

Take `Cc1noc(Cn2c(=O)c3ccccc3n(CC(=O)Nc3cc(Cl)ccc3C)c2=O)n1`: the survival was inactive: 94%.

Turning to `CCOC(=O)c1[nH]c2ccccc2c1NC(=O)c1ccc(C)c(C)c1`, the survival is inactive: 65%.

For `O=C(CCn1cnc2onc(-c3ccc(F)cc3)c2c1=O)Nc1cccc(C(F)(F)F)c1`, the survival is inactive: 96%.

As for `Cc1ccc(-c2nnc(Nc3ccc(OCC(N)=O)cc3)c3ccccc23)cc1S(=O)(=O)NCC1CCCO1` (stereo unspecified), the survival was inactive: 149%.

For `CCc1ccccc1NC(=O)Cn1c(=O)n(C(C)C)c(=O)c2oc3ccccc3c21`, the survival is inactive: 66%.

As to `CCOc1ccccc1NC(=O)Cn1c(=O)nc(-c2ccccc2F)c2cc(Cl)ccc21`, the survival is inactive: 84%.

With `COc1ccccc1NC(=O)c1cc2c(-c3ccccc3)nn(-c3ccccc3)c2s1`, the survival was inactive: 89%.

As to `COc1ccc(OCc2nc3ccccc3n2Cc2ccc(C(C)(C)C)cc2)cc1`, the survival was active: -9%.

On to `CCN(CC)C(=O)Cn1c(SCC(=O)Nc2ccc(F)cc2)nc2ccccc21`, for which the survival was inactive: 100%.

`COc1cccc(NC(=O)C(C)n2c(=O)cc(C(F)(F)F)c3c(C)nn(C)c32)c1` (stereo unspecified): the survival was inactive: 83%.

Consider `O=C(NCc1cccc(Br)c1)C1CCCCN1S(=O)(=O)c1ccc(F)cc1` (stereo unspecified), for which the survival is inactive: 89%.

For the origin of these results see PubChem BioAssay AID463173 (ICCB-Longwood Screening Facility, Harvard Medical School, 2010).
